Results: the supplement of paper PMC8728848
This is one part of the list.

What was measured:
Assay in all cases: glycan array binding signal (z-score within array); higher = stronger binding
Settings in all cases: glycan notation: IUPAC condensed, linker removed
[1] = target: Neu5Ac(a2-3)Gal(b1-4)GlcNAc(b1-3)Gal(b1-4)GlcNAc
Method in brief: (§1)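 The binding signal is a Z-score computed within each array and averaged over linkers. Arrays of the same protein sequence at different concentrations or buffers were also averaged together. Data originate from 3228 arrays in the Consortium for Functional Glycomics database, kept only where the protein sequence was available.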

[2] = target: Neu5Ac(a2-3)Gal(b1-4)GlcNAc(b1-3)Gal(b1-4)GlcNAc(b1-3)Gal(b1-4)GlcNAc
Method in brief: as §1

[3] = target: Neu5Ac(a2-3)Gal(b1-4)GlcNAc(b1-3)Gal(b1-4)[Fuc(a1-3)]GlcNAc
Method in brief: as §1

[4] = target: Neu5Ac(a2-3)Gal(b1-4)GlcNAc(b1-3)GalNAc
Method in brief: as §1

[5] = target: Neu5Ac(a2-3)Gal(b1-4)GlcNAc(b1-6)[Gal(b1-3)]GalNAc
Method in brief: as §1

[6] = target: Neu5Ac(a2-3)Gal(b1-4)GlcNAc(b1-6)[Neu5Ac(a2-3)Gal(b1-3)]GalNAc
Method in brief: as §1

[7] = target: Neu5Ac(a2-3)Gal(b1-4)GlcNAc6S
Method in brief: as §1

[8] = target: Neu5Ac(a2-3)Gal(b1-4)[Fuc(a1-3)]GlcNAc
Method in brief: as §1

[9] = target: Neu5Ac(a2-3)Gal(b1-4)[Fuc(a1-3)]GlcNAc(b1-3)Gal
Method in brief: as §1

[10] = target: Neu5Ac(a2-3)Gal(b1-4)[Fuc(a1-3)]GlcNAc(b1-3)Gal(b1-4)GlcNAc
Method in brief: as §1

[11] = target: Neu5Ac(a2-3)Gal(b1-4)[Fuc(a1-3)]GlcNAc(b1-3)Gal(b1-4)[Fuc(a1-3)]GlcNAc(b1-3)Gal(b1-4)[Fuc(a1-3)]GlcNAc
Method in brief: as §1

[12] = target: Neu5Ac(a2-3)Gal(b1-4)[Fuc(a1-3)]GlcNAc(b1-3)GalNAc
Method in brief: as §1

[13] = target: Neu5Ac(a2-3)Gal(b1-4)[Fuc(a1-3)]GlcNAc(b1-6)[Gal(b1-3)]GalNAc
Method in brief: as §1

[14] = target: Neu5Ac(a2-3)Gal(b1-4)[Fuc(a1-3)]GlcNAc(b1-6)[Neu5Ac(a2-3)Gal(b1-3)]GalNAc
Method in brief: as §1

[15] = target: Neu5Ac(a2-3)Gal(b1-4)[Fuc(a1-3)]GlcNAc6S
Method in brief: as §1

[16] = target: Neu5Ac(a2-3)Gal6S(b1-4)GlcNAc
Method in brief: as §1

[17] = target: Neu5Ac(a2-3)Gal6S(b1-4)[Fuc(a1-3)]GlcNAc
Method in brief: as §1

[18] = target: Neu5Ac(a2-3)GalNAc
Method in brief: as §1

[19] = target: Neu5Ac(a2-3)GalNAc(b1-4)GlcNAc
Method in brief: as §1

[20] = target: Neu5Ac(a2-3)[GalNAc(b1-4)]Gal(b1-4)Glc
Method in brief: as §1

[21] = target: Neu5Ac(a2-3)[GalNAc(b1-4)]Gal(b1-4)GlcNAc
Method in brief: as §1

[22] = target: Neu5Ac(a2-3)[GalNAc(b1-4)]Gal(b1-4)GlcNAc(b1-3)GalNAc
Method in brief: as §1

[23] = target: Neu5Ac(a2-3)[Neu5Ac(a2-6)]GalNAc
Method in brief: as §1

[24] = target: Neu5Ac(a2-6)Gal
Method in brief: as §1

[25] = target: Neu5Ac(a2-6)Gal(b1-3)GlcNAc(b1-3)[Gal(b1-4)GlcNAc(b1-6)]Gal(b1-4)Glc
Method in brief: as §1

[26] = target: Neu5Ac(a2-6)Gal(b1-4)Glc
Method in brief: as §1

[27] = target: Neu5Ac(a2-6)Gal(b1-4)GlcNAc
Method in brief: as §1

[28] = target: Neu5Ac(a2-6)Gal(b1-4)GlcNAc(b1-2)Man(a1-3)Man(b1-4)GlcNAc(b1-4)GlcNAc
Method in brief: as §1

[29] = target: Neu5Ac(a2-6)Gal(b1-4)GlcNAc(b1-2)Man(a1-3)[Gal(b1-4)GlcNAc(b1-2)Man(a1-6)]Man(b1-4)GlcNAc(b1-4)GlcNAc
Method in brief: as §1

[30] = target: Neu5Ac(a2-6)Gal(b1-4)GlcNAc(b1-2)Man(a1-3)[GlcNAc(b1-2)Man(a1-6)]Man(b1-4)GlcNAc(b1-4)GlcNAc
Method in brief: as §1

[31] = target: Neu5Ac(a2-6)Gal(b1-4)GlcNAc(b1-2)Man(a1-3)[GlcNAc(b1-2)Man(b1-4)GlcNAc(b1-2)Man(a1-6)]Man(b1-4)GlcNAc(b1-4)GlcNAc
Method in brief: as §1

[32] = target: Neu5Ac(a2-6)Gal(b1-4)GlcNAc(b1-2)Man(a1-3)[Man(a1-6)]Man(b1-4)GlcNAc(b1-4)GlcNAc
Method in brief: as §1

[33] = target: Neu5Ac(a2-6)Gal(b1-4)GlcNAc(b1-2)Man(a1-3)[Neu5Ac(a2-6)Gal(b1-4)GlcNAc(b1-2)Man(a1-6)]Man(b1-4)GlcNAc(b1-4)GlcNAc
Method in brief: as §1

[34] = target: Neu5Ac(a2-6)Gal(b1-4)GlcNAc(b1-2)Man(a1-6)Man(b1-4)GlcNAc(b1-4)GlcNAc
Method in brief: as §1

[35] = target: Neu5Ac(a2-6)Gal(b1-4)GlcNAc(b1-2)Man(a1-6)[Gal(b1-4)GlcNAc(b1-2)Man(a1-3)]Man(b1-4)GlcNAc(b1-4)GlcNAc
Method in brief: as §1

B1: ConA (Canavalia ensiformis), P02866 (protein)
chain: MAISKKSSLFLPIFTFITMFLMVVNKVSSSTHETNALHFMFNQFSKDQKDLILQGDATTGTDGNLELTRVSSNGSPQGSSVGRALFYAPVHIWESSAVVASFEATFTFLIKSPDSHPADGIAFFISNIDSSIPSGSTGRLLGLFPDANVIRNSTTIDFNAAYNADTIVAVELDTYPNTDIGDPSYPHIGIDIKSVRSKKTAKWNMQNGKVGTAHIIYNSVDKRLSAVVSYPNADSATVSYDVDLDNVLPEWVRVGLSASTGLYKETNTILSWSFTSKLKSNEIPDIATVV
[1]
  glycan array binding signal (z-score): -0.299
[2]
  glycan array binding signal (z-score): -0.269
[3]
  glycan array binding signal (z-score): -0.281
[4]
  glycan array binding signal (z-score): -0.211
[5]
  glycan array binding signal (z-score): -0.269
[6]
  glycan array binding signal (z-score): -0.251
[7]
  glycan array binding signal (z-score): -0.287
[8]
  glycan array binding signal (z-score): -0.273
[9]
  glycan array binding signal (z-score): -0.254
[10]
  glycan array binding signal (z-score): -0.223
[11]
  glycan array binding signal (z-score): -0.13
[12]
  glycan array binding signal (z-score): 0.005
[13]
  glycan array binding signal (z-score): -0.182
[14]
  glycan array binding signal (z-score): -0.085
[15]
  glycan array binding signal (z-score): -0.292
[16]
  glycan array binding signal (z-score): -0.223
[17]
  glycan array binding signal (z-score): -0.168
[18]
  glycan array binding signal (z-score): -0.289
[19]
  glycan array binding signal (z-score): -0.283
[20]
  glycan array binding signal (z-score): -0.26
[21]
  glycan array binding signal (z-score): -0.218
[22]
  glycan array binding signal (z-score): 0.937
[23]
  glycan array binding signal (z-score): -0.287
[24]
  glycan array binding signal (z-score): -0.275
[25]
  glycan array binding signal (z-score): -0.227
[26]
  glycan array binding signal (z-score): -0.275
[27]
  glycan array binding signal (z-score): -0.26
[28]
  glycan array binding signal (z-score): -0.161
[29]
  glycan array binding signal (z-score): -0.068
[30]
  glycan array binding signal (z-score): 0.114
[31]
  glycan array binding signal (z-score): 0.146
[32]
  glycan array binding signal (z-score): 0.818
[33]
  glycan array binding signal (z-score): 0.969
[34]
  glycan array binding signal (z-score): -0.259
[35]
  glycan array binding signal (z-score): -0.212
